No constants are given. Whether binding was seen depends on the method and setting. Binding seen in cells or lysates may run through a third protein. Some entries that bind do so weakly or less than the wild type. Values belong to the binder of their own block, whether it stands above or below them.
Tests used:
Test in all cases: co-IP; mouse anti-v5 antibody cross-linked to protein G magnetic Dynabeads; cleared lysates of EpH4 cell lines stably expressing wt or mutant ILKv5, 1 h at room temperature; washed three times in 150 mM NaCl and two times in 500 mM NaCl wash buffer (10 mM Tris/Cl pH 7.5, 0.5 mM EDTA); immunoblot for αParvin, βParvin and PINCH
[1] = target: ILKv5 E359K mutant (UniProt Q13418)
[2] = target: wild-type Integrin Linked Kinase with a C-terminal v5 tag (wtILKv5) (UniProt Q13418)
[3] = target: ΔN-ILKv5 (ILK construct lacking amino acids 1-63) (UniProt Q13418)

By UniProt entry, the sequences of proteins in these tests, tags left out. Where a name states a change or a piece, a line headed by the entry shows the natural chain unless it says otherwise. Residues count along the entry.
UniProt Q13418: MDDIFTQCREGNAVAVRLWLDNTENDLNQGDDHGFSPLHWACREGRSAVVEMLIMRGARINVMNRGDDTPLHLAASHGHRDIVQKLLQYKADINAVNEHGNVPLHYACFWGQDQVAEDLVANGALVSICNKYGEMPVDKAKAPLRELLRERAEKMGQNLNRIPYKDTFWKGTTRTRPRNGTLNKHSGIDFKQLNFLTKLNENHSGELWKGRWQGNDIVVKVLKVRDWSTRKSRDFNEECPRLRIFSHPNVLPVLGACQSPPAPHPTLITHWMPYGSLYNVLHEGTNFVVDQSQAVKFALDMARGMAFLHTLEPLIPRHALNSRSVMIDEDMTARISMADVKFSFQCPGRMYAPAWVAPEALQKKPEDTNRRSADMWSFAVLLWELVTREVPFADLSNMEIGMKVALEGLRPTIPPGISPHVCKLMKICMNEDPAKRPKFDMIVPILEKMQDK
ΔN-ILKv5 (ILK construct lacking amino acids 1-63): residues 64-452 of Q13418

- binding [1]: no binding
- binding [2]: binds
B1: βParvin (protein, UniProt Q9ES46 1-365)
chain: MSSAPPRSPTPRAPKMKKDESFLGKLGGTLARKKKTREVTDLQEEGKSAINSPMAPALVDIHPEDTQLEENEERTMIDPTSREDPKFKELVKVLLDWINDVLAEERIIVKQLEEDLYDGQVLQKLLEKLAHCKLNVAEVTQSEIGQKQKLQTVLEAVQDLLRPHGWPLRWNVDSIHGKNLVAILHLLVSLAMHFRAPIHLPEHVTVQVVVVRKREGLLHSSHISEELTTTTEIMMGRFERDAFDTLFDHAPDKLNLVKKSLITFVNKHLNKLNLEVTDLETQFADGVYLVLLLGLLEDYFVPLHNFYLTPDSFDQKVHNVAFAFELMLDGGLKKPKARPEDVVNLDLKSTLRVLYTLFTKYKDVE

- binding [1]: no binding
- binding [2]: binds
- binding [3]: binds
B2: αParvin (protein, UniProt Q9EPC1 1-372)
chain: MATSPQKSPLVPKSPTPKSPPSRKKDDSFLGKLGGTLARRKKAKEVSEFQEEGMNAINLPLSPISFELDPEDTLLEENEVRTMVDPNSRNDPKLQELMKVLIDWINDVLVGERIIVKDLAEDLYDGQVLQKLFEKLESEKLNVAEVTQSEIAQKQKLQTVLEKINETLKLPPRSIKWNVDSVHAKNLVAILHLLVALSQYFRAPIRLPDHVSIQVVVVQKREGILQSRQIQEEITGNTEALSGRHERDAFDTLFDHAPDKLNVVKKTLITFVNKHLNKLNLEVTELETQFADGVYLVLLMGLLEGYFVPLHSFFLTPDSFEQKVLNVSFAFELMQDGGLEKPKPRPEDIVNCDLKSTLRVLYNLFTKYRNVE
